# Measured values published in the supplement of paper PMC12067093, “Discovery and optimisation of a covalent ligand for TRIM25 and its application to targeted protein ubiquitination” (Chemical Science, 2025).
# Of roughly 21,000 targets only a part is listed; those with the largest changes were picked by preference.
# Compound: CC1Cc2ccccc2N1C(=O)C1CCCN(C1)C(=O)CCl (mixture of isomers) [TRIM25 ligand 11 (diastereomer mixture)]
# Assay: probe-labelled cysteine peptide fold change vs DMSO (competition) (log2 fold change); higher = less target engagement (more negative = stronger competition)
# Conditions: 10 µM; THP-1; incubation time: 4 h
# 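Note: competitive chemoproteomic profiling in live THP-1 cells with an iodoacetamide desthiobiotin (IA-DTB) probe, comparing probe-labelled peptide intensities in compound-treated cells against DMSO-treated controls.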
# UniProt Q6P1X5, sequence (Q6P1X5 whole entry, looked up): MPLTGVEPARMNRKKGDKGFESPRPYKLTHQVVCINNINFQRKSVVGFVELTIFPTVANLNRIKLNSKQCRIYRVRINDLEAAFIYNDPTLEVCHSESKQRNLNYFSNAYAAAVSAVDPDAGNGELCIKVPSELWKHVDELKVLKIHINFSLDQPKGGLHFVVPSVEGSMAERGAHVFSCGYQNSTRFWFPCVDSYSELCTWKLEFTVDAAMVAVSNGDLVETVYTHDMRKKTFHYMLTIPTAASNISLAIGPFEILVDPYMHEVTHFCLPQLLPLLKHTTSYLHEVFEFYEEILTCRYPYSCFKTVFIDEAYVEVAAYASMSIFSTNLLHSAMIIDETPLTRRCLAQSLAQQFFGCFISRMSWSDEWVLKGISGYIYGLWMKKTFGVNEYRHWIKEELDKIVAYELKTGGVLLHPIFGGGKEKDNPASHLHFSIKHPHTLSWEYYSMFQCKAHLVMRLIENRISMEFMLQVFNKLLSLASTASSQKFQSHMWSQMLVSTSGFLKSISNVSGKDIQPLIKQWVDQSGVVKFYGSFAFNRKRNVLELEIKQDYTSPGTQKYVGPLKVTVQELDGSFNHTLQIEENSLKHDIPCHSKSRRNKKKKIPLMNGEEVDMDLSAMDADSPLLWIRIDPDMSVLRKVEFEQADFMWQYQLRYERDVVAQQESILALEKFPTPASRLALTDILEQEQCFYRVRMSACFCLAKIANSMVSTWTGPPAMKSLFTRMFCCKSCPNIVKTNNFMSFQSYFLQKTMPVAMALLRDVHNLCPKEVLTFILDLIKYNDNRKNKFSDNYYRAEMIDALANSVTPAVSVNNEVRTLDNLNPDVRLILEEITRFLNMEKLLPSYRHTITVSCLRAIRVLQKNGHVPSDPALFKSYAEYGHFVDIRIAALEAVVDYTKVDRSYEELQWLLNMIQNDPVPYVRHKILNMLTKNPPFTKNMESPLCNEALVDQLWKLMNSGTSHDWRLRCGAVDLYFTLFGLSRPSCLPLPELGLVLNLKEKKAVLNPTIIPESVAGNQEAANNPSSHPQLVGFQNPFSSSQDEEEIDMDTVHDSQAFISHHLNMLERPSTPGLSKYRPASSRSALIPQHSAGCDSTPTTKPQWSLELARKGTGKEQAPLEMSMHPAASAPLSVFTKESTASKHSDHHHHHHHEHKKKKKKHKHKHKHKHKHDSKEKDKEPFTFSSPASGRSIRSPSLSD
# UniProt Q15654, sequence (Q15654 whole entry, looked up): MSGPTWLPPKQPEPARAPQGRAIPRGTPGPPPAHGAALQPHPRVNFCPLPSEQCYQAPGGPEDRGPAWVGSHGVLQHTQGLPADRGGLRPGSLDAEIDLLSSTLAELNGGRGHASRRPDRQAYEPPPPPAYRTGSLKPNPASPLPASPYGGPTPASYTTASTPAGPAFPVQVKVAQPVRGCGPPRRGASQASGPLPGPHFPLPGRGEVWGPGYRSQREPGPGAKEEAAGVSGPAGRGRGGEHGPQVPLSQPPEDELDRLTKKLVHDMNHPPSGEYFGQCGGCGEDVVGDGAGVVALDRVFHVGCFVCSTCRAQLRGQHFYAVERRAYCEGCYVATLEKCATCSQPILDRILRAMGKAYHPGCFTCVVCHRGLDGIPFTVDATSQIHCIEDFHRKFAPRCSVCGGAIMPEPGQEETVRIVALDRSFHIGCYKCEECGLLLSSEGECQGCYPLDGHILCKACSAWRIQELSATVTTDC
# UniProt Q6P1N9, sequence (Q6P1N9 whole entry, looked up): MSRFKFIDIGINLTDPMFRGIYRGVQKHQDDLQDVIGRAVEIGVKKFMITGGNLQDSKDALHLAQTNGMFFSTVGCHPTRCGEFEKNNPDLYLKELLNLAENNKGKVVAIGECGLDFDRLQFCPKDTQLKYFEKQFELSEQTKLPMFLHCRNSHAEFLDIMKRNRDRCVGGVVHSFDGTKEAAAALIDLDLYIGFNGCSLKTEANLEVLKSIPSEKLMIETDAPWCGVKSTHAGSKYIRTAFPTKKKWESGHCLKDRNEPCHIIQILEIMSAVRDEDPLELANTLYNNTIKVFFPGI
# UniProt Q9ULW0, sequence (Q9ULW0 whole entry, looked up): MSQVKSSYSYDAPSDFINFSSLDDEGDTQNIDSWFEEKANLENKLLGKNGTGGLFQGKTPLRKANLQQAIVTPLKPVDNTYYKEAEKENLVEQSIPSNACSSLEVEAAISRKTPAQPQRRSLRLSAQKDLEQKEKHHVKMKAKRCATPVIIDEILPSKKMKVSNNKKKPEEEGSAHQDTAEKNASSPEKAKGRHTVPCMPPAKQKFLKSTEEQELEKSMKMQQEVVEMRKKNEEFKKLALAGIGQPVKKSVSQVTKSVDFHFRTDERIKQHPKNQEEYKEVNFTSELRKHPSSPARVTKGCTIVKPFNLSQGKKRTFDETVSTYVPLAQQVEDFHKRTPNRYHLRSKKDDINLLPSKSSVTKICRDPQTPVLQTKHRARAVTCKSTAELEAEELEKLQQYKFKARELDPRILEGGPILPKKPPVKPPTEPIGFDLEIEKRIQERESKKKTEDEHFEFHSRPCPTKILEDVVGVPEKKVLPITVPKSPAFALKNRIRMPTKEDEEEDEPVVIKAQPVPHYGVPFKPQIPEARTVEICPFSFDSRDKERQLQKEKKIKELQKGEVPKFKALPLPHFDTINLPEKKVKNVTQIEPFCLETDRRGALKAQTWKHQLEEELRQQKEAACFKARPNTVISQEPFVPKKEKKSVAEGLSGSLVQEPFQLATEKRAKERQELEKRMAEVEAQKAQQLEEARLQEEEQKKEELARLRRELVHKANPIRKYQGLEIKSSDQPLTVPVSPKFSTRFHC
# UniProt Q96DR4, sequence (Q96DR4 whole entry): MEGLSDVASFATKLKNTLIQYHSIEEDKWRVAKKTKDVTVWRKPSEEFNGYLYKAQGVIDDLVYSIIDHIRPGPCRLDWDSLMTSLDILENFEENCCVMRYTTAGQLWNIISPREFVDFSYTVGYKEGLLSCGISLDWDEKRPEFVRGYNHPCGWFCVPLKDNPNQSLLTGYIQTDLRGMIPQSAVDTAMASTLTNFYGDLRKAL
# UniProt Q8N3U4, sequence (Q8N3U4 whole entry, looked up): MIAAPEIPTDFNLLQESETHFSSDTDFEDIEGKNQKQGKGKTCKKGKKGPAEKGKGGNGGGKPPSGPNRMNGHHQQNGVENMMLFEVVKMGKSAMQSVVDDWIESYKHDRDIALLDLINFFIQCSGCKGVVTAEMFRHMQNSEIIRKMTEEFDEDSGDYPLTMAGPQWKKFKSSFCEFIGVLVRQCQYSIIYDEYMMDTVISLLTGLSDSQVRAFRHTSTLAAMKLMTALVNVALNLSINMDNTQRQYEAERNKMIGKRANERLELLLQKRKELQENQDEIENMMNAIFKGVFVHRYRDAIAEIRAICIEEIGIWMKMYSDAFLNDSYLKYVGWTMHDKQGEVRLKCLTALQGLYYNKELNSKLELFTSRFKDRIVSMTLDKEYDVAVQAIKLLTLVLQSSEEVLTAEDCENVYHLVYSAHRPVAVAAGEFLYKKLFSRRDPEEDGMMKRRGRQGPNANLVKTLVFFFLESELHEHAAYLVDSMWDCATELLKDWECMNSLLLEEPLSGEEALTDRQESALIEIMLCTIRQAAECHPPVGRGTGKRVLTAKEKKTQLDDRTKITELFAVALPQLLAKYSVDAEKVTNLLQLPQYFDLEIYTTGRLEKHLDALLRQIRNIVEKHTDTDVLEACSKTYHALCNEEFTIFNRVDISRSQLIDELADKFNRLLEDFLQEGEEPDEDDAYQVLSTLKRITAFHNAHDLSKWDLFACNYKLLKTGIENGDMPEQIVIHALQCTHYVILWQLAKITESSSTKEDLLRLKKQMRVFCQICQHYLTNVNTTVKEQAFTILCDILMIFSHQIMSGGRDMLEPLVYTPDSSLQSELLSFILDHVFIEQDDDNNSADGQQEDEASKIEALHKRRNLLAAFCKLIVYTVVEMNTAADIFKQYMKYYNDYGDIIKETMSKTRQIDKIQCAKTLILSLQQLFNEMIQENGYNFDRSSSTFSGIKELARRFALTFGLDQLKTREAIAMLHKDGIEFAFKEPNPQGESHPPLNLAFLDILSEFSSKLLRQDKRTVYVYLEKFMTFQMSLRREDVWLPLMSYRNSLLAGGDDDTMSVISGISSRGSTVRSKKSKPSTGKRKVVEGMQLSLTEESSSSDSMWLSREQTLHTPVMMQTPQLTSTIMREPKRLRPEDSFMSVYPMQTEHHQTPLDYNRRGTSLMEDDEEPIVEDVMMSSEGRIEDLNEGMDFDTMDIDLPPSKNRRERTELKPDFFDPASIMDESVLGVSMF
# UniProt A2RTX5, sequence (A2RTX5 whole entry, looked up): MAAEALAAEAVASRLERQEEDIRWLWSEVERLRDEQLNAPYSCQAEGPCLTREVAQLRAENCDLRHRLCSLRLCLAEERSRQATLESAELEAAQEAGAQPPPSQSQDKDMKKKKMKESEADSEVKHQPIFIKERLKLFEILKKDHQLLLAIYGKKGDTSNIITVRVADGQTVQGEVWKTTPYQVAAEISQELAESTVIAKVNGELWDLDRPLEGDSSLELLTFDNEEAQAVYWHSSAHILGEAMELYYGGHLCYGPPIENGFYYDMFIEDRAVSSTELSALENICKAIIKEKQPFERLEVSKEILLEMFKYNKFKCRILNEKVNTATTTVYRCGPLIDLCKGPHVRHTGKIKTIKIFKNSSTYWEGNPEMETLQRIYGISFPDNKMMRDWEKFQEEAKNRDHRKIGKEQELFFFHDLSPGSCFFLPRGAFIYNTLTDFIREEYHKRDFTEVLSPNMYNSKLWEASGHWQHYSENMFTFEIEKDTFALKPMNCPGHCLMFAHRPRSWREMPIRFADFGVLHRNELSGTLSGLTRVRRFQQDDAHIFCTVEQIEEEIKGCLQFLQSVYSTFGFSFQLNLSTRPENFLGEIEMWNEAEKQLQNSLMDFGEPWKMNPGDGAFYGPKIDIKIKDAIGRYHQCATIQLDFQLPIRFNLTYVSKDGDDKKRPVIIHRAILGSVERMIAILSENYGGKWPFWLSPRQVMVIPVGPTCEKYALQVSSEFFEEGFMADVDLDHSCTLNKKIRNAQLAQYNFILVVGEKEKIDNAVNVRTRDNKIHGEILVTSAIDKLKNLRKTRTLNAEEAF
row,Target,probe-labelled cysteine peptide fold change
1,STARD4_Q96DR4_75_AQGVIDDLVYSIIDHIRPGPCR (UniProt Q96DR4),0.224
2,ST13_P50502_209_LLGHWEEAAHDLALACKLDYDEDASAMLK (UniProt P50502),-0.723
3,STAG2_Q8N3U4_632_HTDTDVLEACSK (UniProt Q8N3U4),0.0979
4,SUZ12_Q15022_494_IDVSINECYDGSYAGNPQDIHR (UniProt Q15022),0.38
5,TRAPPC11_Q7Z392_771_VPNISVHLLHEPPALTNEMYCLVVTVQSHEK (UniProt Q7Z392),0.608
6,TPX2_Q9ULW0_364_ICRDPQTPVLQTK (UniProt Q9ULW0),-0.0278
7,TATDN1_Q6P1N9_76_DALHLAQTNGMFFSTVGCHPTR (UniProt Q6P1N9),0.109
8,ST14_Q9Y5Y6_567_VNVVTCTK (UniProt Q9Y5Y6),-0.0349
9,THOC3_Q96J01_65_VHSVAWSCDGR (UniProt Q96J01),-0.00981
10,TONSL_Q96HA7_537_ACIEGQLR (UniProt Q96HA7),-0.00845
11,TAF2_Q6P1X5_357_CLAQSLAQQFFGCFISR (UniProt Q6P1X5),0.121
12,TES_Q9UGI8_22_MGLGHEQGFGAPCLK (UniProt Q9UGI8),0.0368
13,TLN1_Q9Y490_1353_AVTDSINQLITMCTQQAPGQK (UniProt Q9Y490),-0.0261
14,TRIP6_Q15654_362+365+368_AYHPGCFTCVVCHR (UniProt Q15654),-0.0511
15,TANC1_Q9C0D5_800_MDALSCFLIK (UniProt Q9C0D5),0.0833
16,SUGT1_Q9Y2Z0_62_AYCHILLGNYCVAVADAK (UniProt Q9Y2Z0),0.221
17,TARSL2_A2RTX5_546_FQQDDAHIFCTVEQIEEEIK (UniProt A2RTX5),0.614
